# In PubChem BioAssay AID2675 (National Center for Advancing Translational Sciences (NCATS), 2010):
# Several values for one entry are separate records, joined by “and”; a condition that tells them apart may be missing. Equal entries are not always repeated. Out of some 280,000 compounds screened, about 100 (0.036%) were called active. This list was built around the results that the source calls inconclusive (neither active nor inactive); the mix of calls is not that of the screen. Calls follow the shape of the dose curve; as a rule, active = well fitted inhibition curve with a large enough effect in the signal ratio, with a control signal flat (not every such curve was filed as active); inconclusive = small, poorly fitted or top-dose-only effect, or effect the other way, or a change in a side signal; inactive = no such curve, though single readings can be large or run the other way; the % refers to the signal ratio. Potencies beside an inconclusive call are fits to weak or partial responses and may not hold up. A note “side channel” means that the fit belongs to a control or component signal, not to the main read-out.
# Biological target: Muscleblind-like protein 1 (Homo sapiens) (UniProt Q9NR56)
# Experiment: qHTS Assay for Inhibitors of MBNL1-poly(CUG) RNA binding
# Details: TR-FRET MBNL1-His/biotin-(CUG)12 binding, 665/545 ratio; series mostly up to 57.5 µM
# In short: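 TR-FRET between His-tagged MBNL1 and biotin-(CUG)12 RNA, detected with Tb anti-His antibody (0.055 ng/ul) and streptavidin-XL665 (5 nM), 60 min at room temperature. Compounds titrated 92 nM to 58 uM; 665/545 nm ratio normalized to buffer and complex controls.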
# Potency is read from the fitted curve at half-maximal effect; tags tell the direction and shape of the fitted curve or compound fluorescence and quenching.
# UniProt Q9NR56, sequence (Q9NR56 whole entry, looked up): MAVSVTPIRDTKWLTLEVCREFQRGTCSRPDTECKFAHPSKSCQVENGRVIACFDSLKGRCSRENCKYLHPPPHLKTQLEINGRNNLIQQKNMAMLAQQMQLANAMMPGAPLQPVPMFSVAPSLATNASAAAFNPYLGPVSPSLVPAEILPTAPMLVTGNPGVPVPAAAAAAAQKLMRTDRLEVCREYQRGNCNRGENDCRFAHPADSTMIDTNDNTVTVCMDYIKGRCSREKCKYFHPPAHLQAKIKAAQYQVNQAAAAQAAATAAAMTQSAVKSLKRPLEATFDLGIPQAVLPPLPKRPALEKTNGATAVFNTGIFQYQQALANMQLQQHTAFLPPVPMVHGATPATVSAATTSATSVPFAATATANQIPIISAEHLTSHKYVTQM
row,SMILES,Potency
1,COC12C(COC(N)=O)C3=C(C(=O)C(C)=C(N)C3=O)N1CC1C2N1C (stereo not given),"inconclusive: 35.5 µM [quencher, side channel, partial curve]"
2,CCN(CC)CCOC(=O)C(O)(c1ccccc1)c1ccccc1,"inconclusive: 0.126 µM [inhibitor, full curve, poor fit]"
3,Cn1c(=O)n(C)c2cc([N+](=O)[O-])c(N3CCNCC3)cc21,"inconclusive: 3.55 µM [quencher, side channel, full curve]"
4,CC(C)c1ccc(-n2c(O)c(/C=N/NC(=O)c3ccncc3)c(=O)[nH]c2=O)cc1,"inconclusive: 15.8 µM [quencher, side channel, partial curve]"
5,CCS(=O)(=O)N1N=C(c2cccc(NS(C)(=O)=O)c2)CC1c1ccccc1 (stereo not given),"inconclusive: 31.6 µM [quencher, side channel, single point]"
6,CN1CCN(C(=S)c2ccc([N+](=O)[O-])cc2)CC1,"inconclusive: 31.6 µM [quencher, side channel, single point]"
7,CN1CC=C(/C=C/c2ccc(-c3ccccc3)cc2)CC1,"inconclusive: 15.8 µM [quencher, side channel, partial curve]"
8,Fc1ccc2c(c1)nnn2C1CCN(Cc2nnnn2CCc2ccccc2)CC1,inactive
9,COc1ccc(C=C2C(=O)N(C)C(=O)N(C)C2=O)cc1CSc1ccccn1,inactive
10,CC(C)c1ccc(N2C(=O)NC(=O)/C(=C\c3cnc(-c4ccccc4)nc3)C2=O)cc1,inactive
11,CCC(=O)c1cn(Cc2ccc(C#N)cc2)c2ccccc12,inactive
12,O=C1C=Cc2ccccc2C1=O,"inconclusive: 14.1 µM [quencher, side channel, partial curve]"
13,O=C1NC(=O)N(Cc2ccco2)C(=O)/C1=C\c1cccn1CCOc1ccc(Cl)cc1,inactive
14,O=c1[nH]c(O)c(N=Nc2cc(C(F)(F)F)ccc2Cl)c(=O)[nH]1,"inconclusive: 12.6 µM [quencher, side channel, partial curve]"
15,CSc1ccc(C(=O)C2CCCN(Cc3cc4ccccc4[nH]3)C2)cc1 (stereo not given),inactive
16,O=C(CN1C(=O)CCSc2ccccc21)N1CCC2(CC1)OCCO2,"inconclusive: 0.794 µM [quencher, side channel, single point]"
17,Cn1cc2c([N+](=O)[O-])cc([N+](=O)[O-])cc2n1,"inconclusive: 2.82 µM [quencher, side channel, full curve]"
18,Cc1ccc(OCCOc2cccc(C=C3C(=O)NC(=O)NC3=O)c2)cc1,inactive
19,O=C(N/N=C/c1ccncc1)c1cnccn1,"inconclusive: 31.6 µM [quencher, side channel, single point]"
20,N#Cc1ccccc1NC(=O)CN1CC=C(c2ccccc2)CC1,"inconclusive: 28.2 µM [quencher, side channel, single point]"

row,SMILES,Potency
1,NS(=O)(=O)c1ccc(-c2ccc(C=C3C(=O)NC(=O)NC3=O)o2)cc1,"inconclusive: 28.2 µM [quencher, side channel, partial curve]"
2,CN1C(=O)/C(=C/c2cccn2-c2ccc3ccccc3c2)C(=O)NC1=S,inactive
3,O=c1[nH]c(=O)n(-c2cccc3ccccc23)c(O)c1C=NCCCn1ccnc1,inactive
4,O=c1[nH]c(O)c(C=Nc2ccccc2Sc2ccccc2)c(=O)[nH]1,inactive
5,CN1CCN(c2ccc([N+](=O)[O-])c(N3CCCCC3)c2)CC1,"inconclusive: 12.6 µM [quencher, side channel, partial curve]"
6,O=C(C1CC(=O)N(C2CCCCC2)C1)N1CCC2(CC1)OCCO2 (stereo not given),inactive
7,C=CCN1C(=O)/C(=C/c2ccc(N3CCOCC3)o2)C(=O)NC1=S,"inconclusive: 39.8 µM [quencher, side channel, single point]"
8,CCN1C(=O)NC(=O)/C(=C\c2cn(CC(=O)O)c3ccccc23)C1=O,inactive
9,Cc1nc2ccccc2c(=O)n1-c1ccccc1[N+](=O)[O-],"inconclusive: 28.2 µM [quencher, side channel, partial curve]"
10,O=c1cccc2n1CC1CC2CN(C(c2cccc(F)c2)c2sc3ncnn3c2O)C1 (stereo not given),"inconclusive: 0.282 µM [quencher, side channel, full curve, poor fit]"
11,O=C1NS(=O)c2cc([N+](=O)[O-])cc([N+](=O)[O-])c21 (stereo not given),"inconclusive: 12.6 µM [quencher, partial curve]"
12,COC(=O)c1ccccc1OP(=O)(c1cccc([N+](=O)[O-])c1)c1cccc([N+](=O)[O-])c1,"inconclusive: 15.8 µM [quencher, side channel, partial curve]"
13,COc1ccc2c(CN3CC=C(c4ccccc4)CC3)cc(=O)oc2c1,"inconclusive: 25.1 µM [quencher, side channel, partial curve]"
14,Cc1ccc2c(c1)=NC(=O)/C(=C/c1c(O)[nH]c(=O)[nH]c1=O)C=2,"inconclusive: 17.8 µM [quencher, side channel, partial curve]"
15,COCCOC(=O)c1c(N)n(Cc2ccc(OC)cc2)c2nc3ccccc3nc12,"inconclusive: 28.2 µM [quencher, side channel, single point]"
16,Cc1c(C)c2ccc(OCC(=O)N3C[C@H]4C[C@@H](C3)c3cccc(=O)n3C4)cc2oc1=O,"inconclusive: 39.8 µM [quencher, side channel, partial curve]"
17,N#CCCn1cc(C(=O)Nc2ccc([N+](=O)[O-])cc2)c(-c2ccccc2)n1,"inconclusive: 17.8 µM [quencher, partial curve, poor fit]"
18,O=C(NCc1cccnc1)Nc1ccc([N+](=O)[O-])cc1,"inconclusive: 22.4 µM [quencher, side channel, partial curve]"
19,O=C1NC(=O)N(CCc2ccc(F)cc2)C(=O)/C1=C/c1cccs1,inactive
20,COC(=O)C1=C(C)NC(C)=C(C(=O)OC)C1c1ccccc1[N+](=O)[O-],"inconclusive: 79.4 µM [inhibitor, single point]"

row,SMILES,Potency
1,CC(C)c1oc(=O)cc2c1[C@@H](O)[C@H]1OC(=O)[C@@]3(C)C[C@@H](O)[C@@H](O)[C@@]2(C)C13 (stereo not given in full),"inconclusive: 100 µM [inhibitor, partial curve, poor fit]"
2,COc1cc(C(C#N)N2CCOCC2)ccc1O (stereo not given),"inconclusive: 31.6 µM [quencher, side channel, single point]"
3,CNC(=O)Oc1ccc(-c2cn3cc(C)ccc3n2)cc1,"inconclusive: 3.16 µM [quencher, side channel, full curve]"
4,CCOC(=O)C1(CCc2ccccc2)CCN(Cc2ccc(NC(C)=O)cc2)CC1,"inconclusive: 158 µM [inhibitor, single point]"
5,Cc1ccc(CSc2n[nH]c(N)n2)cc1,"inconclusive: 39.8 µM [quencher, side channel, single point]"
6,Cc1cc(N2CCOCC2)nc2ccc(NC(=O)CCC(=O)N3CCC4(CC3)OCCO4)cc12,inactive
7,CCN1C(=O)c2c(C)nc3ccccc3c2C1=O,"inconclusive: 7.94 µM [quencher, side channel, partial curve]"
8,COc1ccc2c(c1)/C(=C/c1cnc[nH]1)C(=O)N2,"inconclusive: 12.6 µM [quencher, side channel, partial curve] and inconclusive: 22.4 µM [quencher, side channel, partial curve]"
9,O=c1[nH]c(O)c(N=Nc2ccc(S(=O)(=O)N3CCOCC3)cc2)c(=O)[nH]1,"inconclusive: 3.16 µM [quencher, full curve]"
10,CNC(=O)COC(=O)c1ccc(-c2nc3ccccc3s2)s1,"inconclusive: 5.62 µM [quencher, side channel, partial curve]"
11,CN1Cc2c(c(C#N)c(N)n(C)c2=S)CC1(C)C,"inconclusive: 12.6 µM [quencher, side channel, partial curve]"
12,N/C(=N/[N+](=O)[O-])N1CCN(C(=O)Oc2ccc([N+](=O)[O-])cc2)CC1,"inconclusive: 15.8 µM [quencher, side channel, partial curve]"
13,O=c1[nH]cc(F)c(=O)[nH]1,"inconclusive: 158 µM [inhibitor, partial curve, poor fit]"
14,CC(C)n1c(N2CCN(S(=O)(=O)c3cccc([N+](=O)[O-])c3)CC2)nc2ccccc21,"inconclusive: 15.8 µM [quencher, partial curve]"
15,O=C(c1cc2nc(-c3ccccc3)cc(-c3ccccc3)n2n1)N1CCC2(CC1)OCCO2,"inconclusive: 14.1 µM [quencher, partial curve]"
16,Cc1c(C=C2C(=O)N(C)C(=S)N(C)C2=O)c2ccccc2n1CC(=O)NCC1CCCO1 (stereo not given),"inconclusive: 15.8 µM [quencher, side channel, partial curve]"
17,CC1CCCCC1NC(=O)Cn1nnc2ccccc2c1=O (stereo not given),"inconclusive: 20 µM [quencher, side channel, single point]"
18,O=C(COc1ccc(Cl)cc1)N1CCN(Cc2ccc([N+](=O)[O-])cc2)CC1,"inconclusive: 11.2 µM [quencher, side channel, partial curve]"
19,O=C1C(=O)c2ccccc2-c2ccccc21,"inconclusive: 25.1 µM [quencher, side channel, partial curve]"
20,Oc1cc2c(cc1CN1CCN(c3ccccc3F)CC1)OCO2,inactive
